Source: the supplement of paper PMC8277577
Recombinant human monoclonal antibodies (heavy:light variable regions). ELISA EC50 on the named antigen, from 10 µg/ml down; lower = stronger. No active / inactive call.

Target: SARS-CoV-2 Wuhan-Hu-1 spike receptor-binding domain
Test: ELISA binding EC50; higher = weaker binding; ELISA of recombinant human antibody on coated antigen, from 10 µg/ml in fourfold dilutions; four-parameter fit.

Binder	ELISA binding EC50 [ng/mL]
C966 (protein) chain 1: EVQLVESGGGLIQPGGSLRLSCAASGFTFSSYDMHWVRQVTGKGLEWVSAIGTAGDRYYLDSVKGRFTISRENAKNSLHLQMNNLRVGDTAVYYCARASGVLTTHFDSWGRGTLVTVSS chain 2: DIQMTQSPSSLSASVGDRVTITCRASQSIGRHLSWHQQKLGKAPKLLIYSASSLQSGVPSRFSGSGSGTDFTLTISSLQPEDFATYYCQQSYETPPWTFGQGTKVEIK	1.97
C902 (protein) chain 1: EVQLVQSGAEVKKPGESLRISCKGSGYSFHTYWIHWVRQMPGKGLEWMGKIDPSDSYTNYSPSFQGHVTFSADRSISTAYLQWSSLKASDTATYYCARLSWSPPTRTTDEKNWFDPWGQGTLVTVSS chain 2: DIQLTQSPSFLAASAGDRVTITCRASQGISSYLAWYQQKPGKAPKVLIYAASTLQSGVPSRFSGSGSGTEFTLTISSLQPEDCATYYCQQFNSDPLTFGGGTKVEIK	3.39
C965 (protein) chain 1: EVQLVESGGGLVKPGRSLRLSCSASGFTFGDYAMTWFRQAPGKGLQWVGFIRSKPFGGTTQYAASVKGRFTISRDDSNNVAYLQMNSLKTEDTGVYYCTRLRQVQGVPGYYFDQWGQGALVTVSS chain 2: EIVMTQSPATLSVSPGERATLSCRASQSVSSNLAWYQQKPGQAPRLLIYGASIRATGIPARFSGSGSGTEFTLTISSLQSEDFVVYYCQEYDNWFAFGGGTKVEIK	1.69
C956 (protein) chain 1: EVQLVESGGGLVQPGRSLRLSCTGSEFTFGDFSMSWFRQAPGKGLEWVGFIRRKADGGTTEYAASVRGRFTISRDDSKSIAYLVMNSLKSEDTAVYYCTRAWIPTPHDYWGQGVLVTVSS chain 2: not shown	1.58
C957 (protein) chain 1: EVQLVESGGGLVQPGRSLRLSCTASGFTFADFSMTWFRQAPGKGLEWVGFIRREADGGTTEYAASVRGRFTISRDDSKGIAYLLMNSLKSEDTAMYYCSRAWIPTPHDYWGQGTLVTVSS chain 2: not shown	1.93
C958 (protein) chain 1: EVQLVQSGAEVKKPGDSLKISCKGSGYSFISHWIAWVRQKPGKGLEWMGIIHPGDSDTRYSPSIQGQVTISADRFITTAYLQWSSLQASDTAMYYCARRGSSWEIDHWGQGTLVTVSS chain 2: QSVLTQPPSASGTPGQRVTISCSGSSSNIGSYTVNWYHQVPGTAPKVLIYGNTQRPSGVPDRFSGSKSGTSASLAISGLQSEDEGDYYCAAWDDSLDGWMFGGGTTLTVL	4.02
C952 (protein) chain 1: EVQLVQSGAEVKKPGESLTISCKDSGNSFTIYWIGWVRQMPGKGLEWMGMIYPGDSGTRYSPSFEGQVTISADESINTAYLQWRSLKASDTAMYYCVRGIAVDWYFDLWGRGTLVTVSS chain 2: QSVLTQPPSVSGAPGQRVTISCTGSSSNIGAGFDVHWYQQLPGTAPKLLIYGNNNRPSGVPDRFSGSKSATSASLAITGLQAEDEADYYCQSSDSSLSGLYVFGTGTNVIV	2.4
C964 (protein) chain 1: EVQLVESGGGLVQPGRSLRLSCAASGFTFDDYGMHWVRQAPGKGLEWVSGISWNSGSIAYAEFVKGRFTISRDNAKNSLYLQMNSLRTEDTALYYCAKAVPTSCYVFCALDIWGQGTMVTVSS chain 2: DIQMTQSPSSLSASVGDRVTITCRASQGISNYLAWYQQSPGKVPKLLIYAASTLQSGVPSRFSGSGSGTDFTLTISSLQPEDVATYYCQKYNSGPALTFGGGTKVEIK	2.79
C961 (protein) chain 1: EVQLVESGGGLVQPGGSLRLSCAASGIIVSNNYMSWVRQAPGKGLEWVSTIFSGGSTYYADSVKDRFTISRDNSNNTLYLQMNSLRPEDTAVYYCTRLGGYRYGMDVWGQGTTVTVS chain 2: DIQMTQSPSSLSASVGDRVTITCQASQDISKYLNWYQQKPGTAPKLLIYDASELERGVPSRFSGSGSGTDFTFTIISLQPEDIATYYCLQYDNLPYTFGQGTKLEIK	2.57
C963 (protein) chain 1: QVQLVQSGAEVKKPGSSVRVSCKASGGTFSSFTITWVRQAPGQGLEWMGRIIPNLNIPNYAQRFQGRITITAEKSTSTAYLELSSLRSEDTAVYYCARGVGYSGSGSNWYFDLWGRGTLVTVSS chain 2: QSVLTQPPSVSGAPGQRVTISCTGSSSNIGAGYDVHWYQQLPGTAPKLLISGHINRPSGVPDRFSGSTSGTSASLAITGLQAEDEADYYCQSYDSSLSDSVFGGGTKLTV	2.96
C839 (protein) chain 1: QVQLQESGPGLVKPLDTLSLTCTVSGASISSYYWSWIRQPAGKGLEWIGLIYSSGSTTYNPSLKSRVTMSVDTSKKQFSLNLSSMTAADTAVYYCARGSALNWKSIGYFDSWGQGTLVTV chain 2: DIQMTQSPSSLSASIRDRVTITCQASQDISNYLNWYQQKAGEAPKLLIYDASSLETGVPSRFSGSGSGTEFTLTISSLQPEDIATYYCQQYDHVPLTFGGGTKVEIK	4.38
C901 (protein) chain 1: QVQLVESGGGVVQPGRSLRIACGASGFTFSTYDMHWVRQAPVKGLEWVAVISRDGSGKFYADSVKGRFTISRDNSKKTLYLQMDSLRPEDTAMYYCARDFESRTWDPPKYYYALDVWGQGTTVTVSS chain 2: DIQMTQSPSSLSASVGDRVTITCRASQSISTYLNWYQQKPGKAPSLLIYAASSLYSGVPSRFSGSGSGTDFSLTISSLQPEDFATYYCQQTYTTPTWTFGQGTKVEIK	2.16
C900 (protein) chain 1: QVQLQESGPGLVKPSGTLSLTCTVSGGSINSRNWWSWVRQPPGKGLEWIGEIFHSGSTNYNPSLESRVAISIDKSHNHFSLKLTSVTAADTAVYYCARANGILDFWGQGTLVTVSS chain 2: DIQMTQSPSSLSASVGDRVTITCRASQGISNSLAWYQLKPGKAPKLLLYAASTLESGVPSRFSGSGSGTNFTLTISSLQPEDFASYCCQHYYSSPRTFGQGTKVEI	2.54
C955 (protein) chain 1: QVQLQQWGAGLLKPSETLSLTCAVYGGTFSGYSWTWIRQPPGKGLDWIGEINHSGSTNYNPSLKSRVTISVDTSKNQFSLKLSSVTAADTAVYYCARAGFGFVITSRSGTDPLFDYWGQGTLVTVSS chain 2: QSVLTQPPSVSGAPGQRVTISCTGSSSNIGAGYDVHWYQQLPGTAPKVLIYGNNNRPSGVPDRFSGSKSGTSASLAITGLQAEDEADYYCQSYDTSLSGSRVFGGGTKLTVL	2.44
C954 (protein) chain 1: QVQLVQSGAEVKKPGSSVKVSCKASGDTFTNYAFSWMRQAPGQGLEWMGRIIPILGIVKYSQKFQDRVRISADKSTSTAYMDLSSLRSEDTAMYYCARDSEFSTSWFSRGYHGMDVWGQGTTVTVSS chain 2: DIVMTQSPLSLPVTPGEPASISCRSSQSLLHGDGYNYLDWYLQKPGQSPHLLIYLGSNRTSGVSDRFSGSGSGTDFTLKISRVEAEDVGVYYCMQALQTPPTFGGGTKVEIK	1.48
C959 (protein) chain 1: QVQLQESGPGLVKPSETLSLNCNVSGGSISNYYWSWIRQPPGKGLEWIGFISYSGSTDYNPSLKSRVIISIDTSKKHFSLNLSSVTAADTAVYFCARHYDILTALSWFDPWGQGTLVTVSS chain 2: QSVLTQPPSVSAAPGQTVTISCSGSSSNIRNNFVSWYQQFPGTAPKLLIYDNNKRPSGIPDRFSGSKSGTSATLGITGLQTGDEADYYCGTWDSSPSACWVFGAGTKLTV	4.58
C960 (protein) chain 1: QVQLVESGGGVVQPGRSLTLSCTASGFTFNRFAMFWVRQAPGKGLEWVAVISFDGSYEHYAESVKGRFAIFRDNPKNTLYLQMNSLRAEDTAVYYCAKSPINYCANGVCYPDSWGQGTLVTVSS chain 2: NFMLTQPHSVSESPGKTVTISCTGSSGSIANNYVQWYQQRPGSAPTTVIFEDTQRPSGVPDRFSGSIDSSSNSASLNISGLKPEDEADYYCQSFDVNSRWVFGGGTKLTVL	1.62
C962 (protein) chain 1: EVQLVESGGGLVQPGGSLRLSCTASRLTVSSNYMNWVRQAPGKGLEWVSVIYAGGSTFYADSVKDRFTISRDNSMNTLYLQMNSLRVEDTAVYYCARLGGYRYGMDVWGQGTTVTV chain 2: DIQMTQSPSSLSASVGDRVTITCQASQDISNYLNWYQQSPGKAPKLLIYDASKLETGVPSRFSGSGSGTDFTFTISSLQPEDIATYYCLQYDNLPYSFGQGTKLEI	1.74
C840 (protein) chain 1: QVQLVESGGGVVQPGRSLRLSCEASGFTFTAYAMHWLRQAPGKGLEWVAVILNDGSNKLYADSVKGRFTVSRDNSKNMLYLQVNSLRVDDTAVYYCARDGSVDTLMVTWFDYWGQGTLVTVSS chain 2: DIQMTQSPSSLSASVGDRVTITCRASQSVNNYLNWYQQKPGQAPKLLIYAASSLQSGVPLRFSGSGSGTDFALTITSLHTEDFATYYCQQSYNTPPWTFGPGTKVEIK	1.36
C967 (protein) chain 1: QVQLVESGGGVVQPGRSLRLSCAASGFTFRIYAMHWVRQAPGKGLEWVAIIWNDGSKQYYADSMKGRFTISRDNSKNTLYLQMNSLRDEDTALYYCAREGVALAGNGVDGFDIWGQGTMVTVSS chain 2: DIQMTQSPSSLSASVGDRVTITCRASQTISTFLNWYRQIPGKAPKLLIYAASSLQSGVPSRFSGSGSGTDFTLTISSLQPEDFATYYCQQTYSTPYTFGRGTKLEIK	3.58
